Drawing on the antibiotic and cytotoxicity screens of Wong et al. (2023), this text covers cytotoxicity call for 31 molecules.

Some of the results follow.

This test has as its system HSkMC (human skeletal muscle cells). The test can be described thus: cytotoxicity call (relative viability < 0.9). To be noted: 10 µM.
In the case of `COc1ccnc(CS(=O)c2nc3cc(OC(F)F)ccc3[nH]2)c1OC` (stereo unspecified), the cytotoxicity call was “inactive”.

With `c1ccc2nc(-c3cn[nH]c3)ccc2c1`, the cytotoxicity call is “inactive”.

In the case of `C[C@H]1CN([C@@H](C)CO)C(=O)Cc2cc(NS(=O)(=O)c3cn(C)cn3)ccc2O[C@@H]1CN(C)S(=O)(=O)c1ccc(Cl)cc1`, the cytotoxicity call was “inactive”.

As for `COCC#Cc1cnc2c(c1)C(=O)N([C@H](C)CO)C[C@H](C)[C@H](CN(C)C(=O)Nc1ccc(OC)cc1)O2`, the cytotoxicity call was “inactive”.

Consider `COc1ccc(S(=O)(=O)N(C)C[C@@H]2Oc3c(NC(=O)c4ccncc4)cccc3C(=O)N([C@H](C)CO)C[C@@H]2C)cc1`, for which the cytotoxicity call was “inactive”.

On to `NC(=O)N1CCC(CC(=O)N2CCC([C@H]3c4ncc(Br)cc4CCc4cc(Cl)cc(Br)c43)CC2)CC1`, for which the cytotoxicity call was “inactive”.

As to `O=C(C[C@@H]1C[C@@H]2c3cc(NC(=O)Nc4ccccc4F)ccc3O[C@@H]2[C@H](CO)O1)NCc1ccc(Oc2ccccc2)cc1`, the cytotoxicity call was “inactive”.

Regarding `COc1ccc(NC(=O)Nc2ccc3c(c2)C(=O)N([C@@H](C)CO)C[C@@H](C)[C@@H](CN(C)S(=O)(=O)c2ccc(Cl)cc2)OCCCC[C@@H](C)O3)cc1`, the cytotoxicity call was “inactive”.

`O=C(C[C@@H]1CC[C@@H]2[C@H](COC[C@@H](O)CN2S(=O)(=O)c2ccccc2)O1)NCCN1CCCCC1`: the cytotoxicity call was “inactive”.

Consider `CS(=O)(=O)N1[C@@H]2Cn3c(cccc3=O)[C@H]1[C@@H](C(=O)NCc1ccccc1)[C@@H]2CO`, for which the cytotoxicity call is “inactive”.

`Cc1noc(C)c1S(=O)(=O)N(C)C[C@@H]1Oc2ccc(NC(=O)C3CCCCC3)cc2CC(=O)N([C@H](C)CO)C[C@H]1C`: the cytotoxicity call was “inactive”.

With `CCCNC(=O)N(C)C[C@@H]1Oc2cc(C#Cc3ccccn3)ccc2S(=O)(=O)N([C@@H](C)CO)C[C@H]1C`, the cytotoxicity call was “inactive”.

Regarding `C[C@H](CO)N1C[C@H](C)[C@@H](CN(C)C(=O)NC2CCCCC2)OCCCC[C@H](C)Oc2ccc(NC(=O)C3CCCCC3)cc2C1=O`, the cytotoxicity call was “inactive”.

On to `C[C@H](CO)N1C[C@H](C)[C@H](CN(C)S(=O)(=O)c2ccccc2)Oc2ccc(NC(=O)CCC(F)(F)F)cc2CC1=O`, for which the cytotoxicity call was “inactive”.

On to `COc1cc(N)ccc1N1CCCS1(=O)=O`, for which the cytotoxicity call is “inactive”.

Regarding `N=C(N)NCc1cn(CC(=O)N2CCN(c3ccccc3)CC2)nn1`, the cytotoxicity call is “inactive”.

`Cc1sc2ncnc(N3CCC(Cn4cc(C(C)(C)N)nn4)CC3)c2c1C`: the cytotoxicity call was “inactive”.

As to `O=C1NC(=O)C2(CCCCC2)N1`, the cytotoxicity call is “inactive”.

`C[C@@H]1CCCCO[C@@H](CN(C)C(=O)Nc2cccc3ccccc23)[C@H](C)CN([C@H](C)CO)C(=O)c2cc(NS(=O)(=O)c3ccc(Cl)cc3)ccc2O1`: the cytotoxicity call was “inactive”.

For `C[C@@H]1CCCCO[C@@H](CN(C)C(=O)CCCN(C)C)[C@H](C)CN([C@H](C)CO)C(=O)c2cc(NC(=O)Nc3ccc(C(F)(F)F)cc3)ccc2O1`, the cytotoxicity call was “inactive”.

Take `C[C@H]1CN([C@@H](C)CO)C(=O)c2cc(NC(=O)CCCN(C)C)ccc2O[C@@H]1CN(C)Cc1ccc(Oc2ccccc2)cc1`: the cytotoxicity call is “inactive”.

With `C[C@H](CO)N1C[C@H](C)[C@H](CN(C)S(=O)(=O)c2ccc(Oc3ccccc3)cc2)OCc2cnnn2CCCC1=O`, the cytotoxicity call is “inactive”.

As for `COc1cccc(C(=O)c2ccccc2)c1`, the cytotoxicity call is “inactive”.

As for `C[C@H](CO)N1C[C@H](C)[C@H](CN(C)Cc2ccc3c(c2)OCO3)Oc2ccc(NS(C)(=O)=O)cc2CC1=O`, the cytotoxicity call was “inactive”.

`C[C@@H]1CCCCO[C@@H](CN(C)Cc2ccncc2)[C@H](C)CN([C@@H](C)CO)C(=O)c2cc(NC(=O)Nc3ccccc3)ccc2O1`: the cytotoxicity call was “inactive”.

For the molecule `Cc1ccc(S(=O)(=O)Nc2ccc3c(c2)C(=O)N([C@H](C)CO)C[C@H](C)[C@H](CN(C)C(=O)Nc2cccc4ccccc24)OCCCC[C@@H](C)O3)cc1`, the cytotoxicity call is “inactive”.

Take `CC1OC(Oc2c(-c3ccc(O)c(O)c3)oc3cc(O)cc(O)c3c2=O)C(O)C(O)C1O` (stereo unspecified): the cytotoxicity call is “inactive”.

Take `COc1ccccc1CNC(=O)C[C@H]1CC[C@@H]2[C@H](COC[C@@H](O)CN2C(=O)Nc2ccc(Cl)cc2)O1`: the cytotoxicity call is “inactive”.

Consider `C[C@@H]1CN([C@H](C)CO)C(=O)Cc2cc(NC(=O)Nc3cccc4ccccc34)ccc2O[C@H]1CN(C)Cc1ccccc1`, for which the cytotoxicity call is “inactive”.

Turning to `C[C@@H]1CN([C@@H](C)CO)C(=O)c2cc(NC(=O)Nc3ccc4c(c3)OCO4)ccc2O[C@@H](C)CCCCO[C@@H]1CN(C)CC1CCCCC1`, the cytotoxicity call is “inactive”.

Take `Cc1noc(C)c1S(=O)(=O)N(C)C[C@H]1OCCCC[C@H](C)Oc2ccc(NC(=O)Nc3ccccc3)cc2C(=O)N([C@@H](C)CO)C[C@@H]1C`: the cytotoxicity call is “inactive”.
